In all, about 310,000 compounds went through this assay and about 14,000 (4.5%) showed an effect of 50% or more. Effects have a minus sign here. The list shows a part of the results.
molecular target: human ether-à-go-go-related gene (hERG) potassium channel (human, UniProt Q12809); test: primary screen, population patch clamp on CHO cells stably expressing hERG
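Also: peak tail current of the secondary pulse compared with the same well before compound.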

Sequence of human ether-à-go-go-related gene (hERG) potassium channel (Q12809 whole entry, looked up): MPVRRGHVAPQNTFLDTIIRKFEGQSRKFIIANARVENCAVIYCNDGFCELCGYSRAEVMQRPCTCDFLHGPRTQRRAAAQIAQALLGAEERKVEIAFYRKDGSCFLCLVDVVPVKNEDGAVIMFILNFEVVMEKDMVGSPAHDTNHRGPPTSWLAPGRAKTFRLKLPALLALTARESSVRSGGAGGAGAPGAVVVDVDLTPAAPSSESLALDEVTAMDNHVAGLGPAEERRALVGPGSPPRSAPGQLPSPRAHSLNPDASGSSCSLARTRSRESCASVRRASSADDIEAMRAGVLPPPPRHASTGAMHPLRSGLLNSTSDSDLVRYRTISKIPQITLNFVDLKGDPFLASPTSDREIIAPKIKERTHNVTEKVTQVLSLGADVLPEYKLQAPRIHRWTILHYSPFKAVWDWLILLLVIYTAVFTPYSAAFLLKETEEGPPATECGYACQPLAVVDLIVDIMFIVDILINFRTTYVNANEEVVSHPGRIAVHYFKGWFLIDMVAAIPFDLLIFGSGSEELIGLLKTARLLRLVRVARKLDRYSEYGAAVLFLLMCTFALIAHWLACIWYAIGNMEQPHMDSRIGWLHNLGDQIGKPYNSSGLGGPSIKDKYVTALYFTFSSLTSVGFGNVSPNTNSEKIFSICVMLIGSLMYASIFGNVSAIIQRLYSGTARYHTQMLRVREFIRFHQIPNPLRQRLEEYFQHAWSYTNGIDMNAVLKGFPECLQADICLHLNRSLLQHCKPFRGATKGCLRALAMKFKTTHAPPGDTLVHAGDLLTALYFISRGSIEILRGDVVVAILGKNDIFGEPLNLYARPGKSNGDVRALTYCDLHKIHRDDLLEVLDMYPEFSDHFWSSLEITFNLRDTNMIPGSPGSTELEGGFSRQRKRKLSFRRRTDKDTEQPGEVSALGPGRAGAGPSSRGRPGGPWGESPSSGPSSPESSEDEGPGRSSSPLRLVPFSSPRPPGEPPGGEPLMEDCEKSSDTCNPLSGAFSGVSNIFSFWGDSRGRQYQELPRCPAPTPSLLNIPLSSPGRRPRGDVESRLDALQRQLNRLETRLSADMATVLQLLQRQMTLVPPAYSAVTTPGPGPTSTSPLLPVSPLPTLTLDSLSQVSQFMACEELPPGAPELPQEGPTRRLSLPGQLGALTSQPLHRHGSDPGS

SMILES	hERG current change (%, negative = inhibition) at 10uM
CN1C(=O)C(=Cc2ccc(OCC(=O)Nc3ccccc3)cc2)C(=O)N(C)C1=O	17.4%
O=C(Nc1nc2ccccc2s1)c1cccc(S(=O)(=O)N2CCc3ccccc32)c1	-7.03%
CN1CCN(c2ccc(Cl)cc2NC(=O)c2ccc(=O)n(C)n2)CC1	-58.3%
O=C(NCC1CCCO1)C1CCC(CNS(=O)(=O)c2ccccc2)CC1 (stereo not shown)	15.5%
CCCOc1cc(C)c(S(=O)(=O)NCCOC)cc1C	-5.35%
CCN(CC)S(=O)(=O)c1ccc(N2CCOCC2)c(NC(=O)c2ccc(OC)c([N+](=O)[O-])c2)c1	-24.5%
CCOc1cccc(=O)c2c(C)oc(C)c12	0.291%
S=c1[nH]nc(-c2ccccc2)n1/N=C/c1ccc(Cl)cc1	20.1%
Cc1csc(C(=O)O)c1-c1c(C)csc1C(=O)O	1.61%
O=[N+]([O-])c1cc2c(cc1CN1CCN(CCOCCO)CC1)OCO2	15.8%
N#Cc1ccc(OCC(O)CS(=O)(=O)c2ccccc2)cc1 (stereo not shown)	-21%
C/C=C1\COC(C(=O)NCc2cccc(OC)c2OC)(C(F)(F)F)C=C1C=C1CCCCC1 (stereo not shown)	-1.9%
C=CCNc1cnn(-c2ccc(C)cc2)c(=O)c1Sc1ccc(C)cc1	-79.4%
O=c1[nH]c(=O)n(Cc2ccccc2)c2nc(-c3ccc(C(F)(F)F)cc3)n(CCO)c12	5.7%
CCCC(=O)Nc1ccc(C(N)=O)cc1	16.3%
Cc1ccc(C(=O)N/C(=C\c2ccco2)C(=O)NCC2CCCO2)cc1C (stereo not shown)	3.11%
CC(CC(=O)N1CCN(c2ccc(C(F)(F)F)cn2)CC1)n1ccnc1 (stereo not shown)	-66.2%
c1ccc(CSc2ncnc3c2sc2nc(N4CCOCC4)c4c(c23)CCCC4)cc1	-4.97%
Cc1ccnc(N2CCCC(C(=O)NC3CC3)C2)n1 (stereo not shown)	-6.63%
Nc1ccccc1N=Cc1c(O)n(CCC2=CCCCC2)c(=O)[nH]c1=O	0.0276%
CC(C)C[C@H](NC(=O)C1CCC(CNC(=O)[C@@H]2CCCN2C(=O)OC(C)(C)C)CC1)C(=O)O (stereo partly shown)	13.1%
CCOC(=O)N1CCN(C(=O)c2oc3ccc(S(=O)(=O)N4CCCCC4)cc3c2C)CC1	-21.6%

SMILES	hERG current change (%, negative = inhibition) at 10uM
CN(C)CCCN(C(=O)c1ccc(S(=O)(=O)N2CCc3ccccc3C2)cc1)c1nc2ccc(F)cc2s1.Cl	1.76%
CCCCn1c(N)c(N(CCOC)C(=O)CN2CC=C(c3ccccc3)CC2)c(=O)[nH]c1=O	16%
CCOc1ccc(OCCOc2cccc(C(F)(F)F)c2)cc1	9.77%
CCNC(=O)CC1SC(=Nc2cccc(Cl)c2C)N(C)C1=O (stereo not shown)	3.31%
COc1ccc(N2CC(O)=C(c3nc(-c4ccc(F)cc4)cs3)C2=N)cc1OC	-19%
C#CCOCCOCCOCCNc1nc(N2CCN(C(=O)[C@H](CCCCN)n3cc(C(N)CO)nn3)CC2)nc(N2CCN(C(=O)[C@H](CCC(=O)O)n3cc(C(N)[C@H](C)CC)nn3)CC2)n1.Cl (stereo partly shown)	9.4%
COc1cc(C(=O)N2CCN=C2c2ccccc2)cc(OC)c1OC	6.39%
N#C/C(=C(/O)Cc1ccccc1)P(=O)(c1ccccc1)c1ccccc1	4.09%
Cc1nnc(NC(=O)CSc2cn(CCNC(=O)c3ccccc3)c3ccccc23)s1	-2.03%
COc1cc(/C=C2\S/C(=N/S(=O)(=O)c3ccc(C)cc3)NC2=O)c([N+](=O)[O-])cc1OC	-16.4%
O=C(O)CCC(=O)Nc1ccc(C(=O)OCC(=O)c2ccc(Cl)cc2Cl)cc1	6.13%
CCOC(=O)CNC(=O)CSc1nc(-c2ccccc2)ns1	2.32%
O=C(CNC(=O)c1ccccc1)OC(C(=O)c1ccccc1)c1ccccc1 (stereo not shown)	0.0122%
N=C1SC(CC(=O)Nc2ccc([N+](=O)[O-])cc2)C(=O)N1c1ccccc1 (stereo not shown)	6.39%
NS(=O)(=O)c1ccc(CCNC(=O)C2CCN(S(=O)(=O)c3c(Cl)cccc3Cl)CC2)cc1	-7.27%
O=C(NC1CCCCC1)c1ccc(-c2ccc(Cl)cc2)o1	2.82%
COc1cc(/C=C2\SC(=O)N(CC(=O)Nc3ccc(C)cc3)C2=O)cc(Cl)c1OCC(=O)O	9.93%
CN1C(=O)c2ccccc2C(C(=O)NCCCN2CCCC2)C1c1c[nH]c2ccccc12 (stereo not shown)	0.177%
CCOC(=O)CCNC(C)C1COc2ccccc2O1.O=C(O)C(=O)O (stereo not shown)	1.93%
S=C(NCC1CCCO1)Nc1ccc(Nc2ccccc2)cc1 (stereo not shown)	3.04%
Cc1cccc(NC(=O)CN2C(=O)COc3ccc(Cl)cc32)c1C	8.74%
COC(=O)C1=C(C)N(Cc2ccccc2)C(=O)N[C@H]1c1cccc(F)c1	-2.86%

SMILES	hERG current change (%, negative = inhibition) at 10uM
O=C(CCC(=O)OCC(=O)c1cccc([N+](=O)[O-])c1)NC1CCCCC1	-31.8%
COc1ccc(CNC(C)C(=O)Nc2ccc3ccccc3c2)cc1OC (stereo not shown)	7%
COC(=O)c1ccc(COc2ccc(Cl)cc2)o1	2.11%
O=C(CN1C(=O)c2cccnc2Oc2ccc(Cl)cc21)NC1CCCCCC1	-3.92%
Cc1nn(-c2ccccc2)c(C)c1/C=N/NC(=O)c1ccccc1NS(=O)(=O)c1cccs1	4.39%
COc1ccc(-c2oc3ccccc3c2C#Cc2cncn2C)cc1	16%
CCCc1ccc2oc(C(=O)N(C)CCn3ccnc3C)c(C)c2c1	-61.4%
Cc1ccccc1NC(=O)C1(C)Cc2ccccc2C(=O)O1 (stereo not shown)	4.99%
CSc1cccc(NC(=O)C(C)NS(=O)(=O)c2ccc(F)cc2)c1 (stereo not shown)	-15.1%
CC(O)[C@@H](NC(=O)C1CCC(CNC(=O)[C@H](Cc2ccccc2)NC(=O)OC(C)(C)C)CC1)C(=O)O (stereo partly shown)	18.2%
CC1CCC(NCC(O)c2ccccc2)CC1 (stereo not shown)	17.2%
Br.CCCC1CC(CSC(=N)N)OC1=O (stereo not shown)	13.9%
CC1=C(C(=O)OC(C)C)C(c2cccs2)n2ncnc2N1 (stereo not shown)	3.5%
Cc1ccc(C(=O)NCC(=O)OCN2C(=O)c3ccccc3C2=O)cc1C	6.97%
Cc1cc(C(=O)N/N=C/c2c(C)n(C)c3ccccc23)n[nH]1	-5.39%
Cc1ccc2[nH]c(=O)c(CN(CC3COCCO3)C(=O)Nc3ccccc3C)cc2c1 (stereo not shown)	3.87%
Cc1cc(S(=O)(=O)Nc2ccc(C(=O)NCC(C)(C)N3CCOCC3)cc2)ccc1F	-18.4%
CCOC(=O)/C=C1\SCC(=O)N1CC(=O)NCCOC	-10.2%
CN(C)S(=O)(=O)c1cccc(NC(=S)Nc2cc(Cl)cc(Cl)c2)c1	-5.01%
Cc1cccc(Cc2cnc(NC(=O)c3ccc(C)o3)s2)c1	-8.65%
Cc1cccc(NC(=S)NCCc2ccc(S(N)(=O)=O)cc2)c1C	11.4%
O=c1c2cc3c(=O)n(CC4CCCO4)c(=O)c3cc2c(=O)n1CC1CCCO1 (stereo not shown)	-3.92%

SMILES	hERG current change (%, negative = inhibition) at 10uM
Cc1nn(C)cc1CNC(=O)c1ccc(F)cc1	10.7%
COc1ccc(OC)c([C@@H](O)[C@H](C)NC(C)(C)C)c1.Cl	8.9%
COc1ccc(N/C(N)=N/c2nc(CSc3ccc(C)cc3)cc(=O)[nH]2)cc1	-33.8%
NC(=O)COC(=O)CCSc1ccc(Cl)cc1	20.1%
CCN(CC)c1ccc(/C=N/NC(=O)CNC(=O)c2cccnc2)cc1	1.49%
CCCCN1CC(COc2ccccc2)OC1=O (stereo not shown)	-16%
CS(=O)(=O)N1c2ccccc2[C@]2(Br)C[C@H]3C(=O)N[C@@H](Cc4ccccc4)C(=O)N3[C@H]12	14.7%
Cc1oc(-c2ccccc2Cl)nc1CN1CCCN(C(=O)c2ccco2)CC1	-65.4%
CCC(=O)N1CCN(c2ccc(Cl)cc2NC(=O)c2cccc([N+](=O)[O-])c2)CC1	-49.2%
O=C(CN1CCOCC1)NCCNC(=O)CN1CCOCC1	3.02%
Cc1ccc(C(=O)CCC(=O)OCC(=O)Nc2ccccc2SCC#N)cc1	-18.5%
Nc1cc2nsnc2cc1Br	9.74%
CC(C)NC(=O)CC1C(=O)NCCN1CC(c1ccccc1)c1ccccc1 (stereo not shown)	-19.6%
O=C(NC1(C(=O)NC2CCCC2)CCCCC1)c1ccc2c(c1)OCO2	0.538%
COc1ccc(OC)c(NC(=O)c2nc(-c3ccccc3)oc2C)c1	-6.31%
O=C(Nc1ccc(S(=O)(=O)Nc2ncccn2)cc1)C12CC3CC(CC(C3)C1)C2	13.4%
Cc1cccc(C)c1NC(=O)C1(N(Cc2ccco2)C(=O)CC2NC(=O)NC2=O)CCCCC1 (stereo not shown)	7.25%
O=C(Nc1cccc(-c2nnc(-c3ccccc3)o2)c1)c1ccco1	13.3%
CCOc1cc(CNCCO)c(Cl)cc1OCC(=O)NCCc1ccccc1	-6.82%

From PMC4336329 (PLoS ONE, 2015)
